These results are taken from article PMC5551570.

Amino acid sequences for entries named in this document (tags omitted). A change or cut given only in a name is not applied to a line headed by its entry. Chains listed by the source or under a name are the forms on record and can include a tag or linker. Residues count along the entry.
WT 1N4R human tau (P10636, form named): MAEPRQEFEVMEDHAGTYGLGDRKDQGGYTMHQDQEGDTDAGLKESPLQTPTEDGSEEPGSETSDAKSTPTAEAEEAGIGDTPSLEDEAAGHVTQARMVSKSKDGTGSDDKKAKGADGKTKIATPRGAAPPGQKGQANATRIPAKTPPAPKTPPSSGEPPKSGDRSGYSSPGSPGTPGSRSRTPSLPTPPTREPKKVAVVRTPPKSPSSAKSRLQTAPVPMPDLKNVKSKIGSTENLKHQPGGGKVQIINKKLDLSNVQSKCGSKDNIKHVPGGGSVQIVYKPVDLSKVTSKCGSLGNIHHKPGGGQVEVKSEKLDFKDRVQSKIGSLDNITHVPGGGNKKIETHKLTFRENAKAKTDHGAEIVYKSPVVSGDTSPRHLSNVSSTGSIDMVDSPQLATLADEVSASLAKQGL
UniProt P35569: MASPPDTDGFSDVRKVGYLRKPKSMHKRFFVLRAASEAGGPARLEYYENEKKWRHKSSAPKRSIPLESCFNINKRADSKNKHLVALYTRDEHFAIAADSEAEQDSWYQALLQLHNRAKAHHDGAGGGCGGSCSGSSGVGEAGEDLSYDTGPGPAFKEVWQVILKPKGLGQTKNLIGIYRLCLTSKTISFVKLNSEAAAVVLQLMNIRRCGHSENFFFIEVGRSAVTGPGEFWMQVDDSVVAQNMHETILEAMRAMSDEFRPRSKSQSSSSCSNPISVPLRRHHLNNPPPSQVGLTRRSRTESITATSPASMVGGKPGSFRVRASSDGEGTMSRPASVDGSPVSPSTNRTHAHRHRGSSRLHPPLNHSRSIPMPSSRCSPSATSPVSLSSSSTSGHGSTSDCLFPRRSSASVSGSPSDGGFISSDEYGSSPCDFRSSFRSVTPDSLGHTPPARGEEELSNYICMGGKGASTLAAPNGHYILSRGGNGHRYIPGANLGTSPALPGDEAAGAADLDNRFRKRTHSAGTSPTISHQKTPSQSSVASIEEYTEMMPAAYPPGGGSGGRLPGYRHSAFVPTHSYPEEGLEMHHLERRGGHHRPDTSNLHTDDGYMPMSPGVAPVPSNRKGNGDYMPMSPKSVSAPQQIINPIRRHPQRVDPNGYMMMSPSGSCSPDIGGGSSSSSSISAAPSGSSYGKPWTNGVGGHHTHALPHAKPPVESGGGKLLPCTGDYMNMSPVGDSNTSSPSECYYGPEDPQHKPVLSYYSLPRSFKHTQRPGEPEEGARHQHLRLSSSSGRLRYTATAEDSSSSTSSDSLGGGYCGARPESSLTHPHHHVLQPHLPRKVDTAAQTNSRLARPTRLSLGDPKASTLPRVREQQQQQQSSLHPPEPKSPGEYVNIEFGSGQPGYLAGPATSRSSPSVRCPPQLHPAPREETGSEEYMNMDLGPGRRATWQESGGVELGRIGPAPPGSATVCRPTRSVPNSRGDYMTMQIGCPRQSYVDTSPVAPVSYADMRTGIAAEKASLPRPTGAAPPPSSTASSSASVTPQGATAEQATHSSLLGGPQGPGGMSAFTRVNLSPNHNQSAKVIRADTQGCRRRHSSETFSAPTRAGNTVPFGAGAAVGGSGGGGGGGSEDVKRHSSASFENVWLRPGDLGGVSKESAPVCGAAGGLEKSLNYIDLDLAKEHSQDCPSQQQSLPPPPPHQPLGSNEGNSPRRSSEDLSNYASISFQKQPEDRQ
UniProt P15208, residues 28-1372: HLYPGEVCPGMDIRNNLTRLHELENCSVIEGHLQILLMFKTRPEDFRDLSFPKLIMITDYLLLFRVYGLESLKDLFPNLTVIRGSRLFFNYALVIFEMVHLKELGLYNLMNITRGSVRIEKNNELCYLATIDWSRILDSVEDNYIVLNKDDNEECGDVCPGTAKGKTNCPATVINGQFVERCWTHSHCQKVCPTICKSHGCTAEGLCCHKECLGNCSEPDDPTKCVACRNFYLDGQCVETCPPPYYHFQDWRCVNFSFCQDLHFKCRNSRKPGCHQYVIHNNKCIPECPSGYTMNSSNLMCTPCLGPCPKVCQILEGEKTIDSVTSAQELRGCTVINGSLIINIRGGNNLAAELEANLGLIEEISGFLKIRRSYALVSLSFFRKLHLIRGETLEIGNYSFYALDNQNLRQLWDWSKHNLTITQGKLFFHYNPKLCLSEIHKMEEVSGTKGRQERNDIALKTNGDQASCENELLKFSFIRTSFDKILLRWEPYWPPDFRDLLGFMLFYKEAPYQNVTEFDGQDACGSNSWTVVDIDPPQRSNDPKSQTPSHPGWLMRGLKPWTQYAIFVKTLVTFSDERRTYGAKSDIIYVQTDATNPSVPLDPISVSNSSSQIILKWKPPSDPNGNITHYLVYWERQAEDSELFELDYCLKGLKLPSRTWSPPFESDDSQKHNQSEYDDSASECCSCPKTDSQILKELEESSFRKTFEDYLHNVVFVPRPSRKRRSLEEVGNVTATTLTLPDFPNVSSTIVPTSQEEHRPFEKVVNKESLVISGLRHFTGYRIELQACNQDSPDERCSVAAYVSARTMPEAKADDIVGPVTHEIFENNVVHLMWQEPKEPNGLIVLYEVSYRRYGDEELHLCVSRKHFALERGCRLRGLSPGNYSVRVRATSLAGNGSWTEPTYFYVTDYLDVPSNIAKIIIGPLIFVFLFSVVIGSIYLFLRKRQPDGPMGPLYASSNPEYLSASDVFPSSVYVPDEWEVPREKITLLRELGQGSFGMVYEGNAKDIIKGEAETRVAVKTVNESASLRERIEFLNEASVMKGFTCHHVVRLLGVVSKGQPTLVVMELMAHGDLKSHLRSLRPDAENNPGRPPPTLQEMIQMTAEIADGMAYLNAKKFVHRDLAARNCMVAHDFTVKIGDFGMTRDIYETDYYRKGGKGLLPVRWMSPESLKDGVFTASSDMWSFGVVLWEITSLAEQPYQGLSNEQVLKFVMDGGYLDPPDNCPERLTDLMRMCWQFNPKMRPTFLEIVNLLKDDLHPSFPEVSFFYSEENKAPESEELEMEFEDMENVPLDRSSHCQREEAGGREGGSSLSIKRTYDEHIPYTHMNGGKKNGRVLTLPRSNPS
UniProt O08586: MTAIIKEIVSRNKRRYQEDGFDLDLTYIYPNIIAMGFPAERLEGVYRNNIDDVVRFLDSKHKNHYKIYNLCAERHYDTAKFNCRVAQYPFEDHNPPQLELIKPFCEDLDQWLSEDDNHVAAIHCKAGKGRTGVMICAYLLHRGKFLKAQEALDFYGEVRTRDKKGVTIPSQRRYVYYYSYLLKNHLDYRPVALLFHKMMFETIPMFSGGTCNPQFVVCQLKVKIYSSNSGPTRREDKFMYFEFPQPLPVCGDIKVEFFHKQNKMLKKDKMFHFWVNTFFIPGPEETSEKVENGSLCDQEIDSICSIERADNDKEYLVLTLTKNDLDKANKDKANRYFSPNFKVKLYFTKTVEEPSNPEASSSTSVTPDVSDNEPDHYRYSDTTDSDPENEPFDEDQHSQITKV

No constants are given. Whether binding was seen depends on the method and setting. Binding seen in cells or lysates may run through a third protein. Some binding calls cover weakened binding; strength is not graded here.

For this test, the target named is WT 1N4R human tau (human) (UniProt P10636). In words: co-IP; extract of N1E115 cells transfected with WT 1N4R hTau (200 ug supernatant protein; 50 mM Tris-HCl pH 7.4, 150 mM NaCl, 1 mM EDTA, 1% Nonidet, 0.5% sodium deoxycholate) incubated with antibody to tau (tau5) or PTEN and anti-IgG mouse beads for one night at 4°C; eluate blotted.

For IRS-1 (from UniProt P35569 1-1233), the binding result was “no binding”.

For “insulin receptor (IR) (from UniProt P15208 28-1372)”, the binding result is given as “no binding”.

“phosphatase and tensin homologue on chromosome 10 (PTEN), in N1E115 cells (from UniProt O08586 1-403) (enzyme)”: the binding entry is “binds”.

B1: protein tyrosine phosphatase 1B (PTP1B) (enzyme, UniProt P35821 1-432)
chain: MEMEKEFEEIDKAGNWAAIYQDIRHEASDFPCKVAKLPKNKNRNRYRDVSPFDHSRIKLHQEDNDYINASLIKMEEAQRSYILTQGPLPNTCGHFWEMVWEQKSRGVVMLNRIMEKGSLKCAQYWPQQEEKEMVFDDTGLKLTLISEDVKSYYTVRQLELENLTTKETREILHFHYTTWPDFGVPESPASFLNFLFKVRESGSLSLEHGPIVVHCSAGIGRSGTFCLADTCLLLMDKRKDPSSVDIKKVLLEMRRFRMGLIQTADQLRFSYLAVIEGAKFIMGDSSVQDQWKELSREDLDLPPEHVPPPPRPPKRTLEPHNGKCKELFSSHQWVSEETCGDEDSLAREEGRAQSSAMHSVSSMSPDTEVRRRMVGGGLQSAQASVPTEEELSSTEEEHKAHWPSHWKPFLVNVCMATLLATGAYLCYRVCFH
On to B1, for which the binding entry is listed as “no binding”.

B2: SH2 domain containing inositol 5-phosphatase 2 (SHIP2) (enzyme, UniProt Q6P549 1-1257)
chain: MASVCGTPSPGGALGSPAPAWYHRDLSRAAAEELLARAGRDGSFLVRDSESVAGAFALCVLYQKHVHTYRILPDGEDFLAVQTSQGVPVRRFQTLGELIGLYAQPNQGLVCALLLPVEGEREPDPPDDRDASDVEDEKPPLPPRSGSTSISAPVGPSSPLPTPETPTTPAAESTPNGLSTVSHEYLKGSYGLDLEAVRGGASNLPHLTRTLVTSCRRLHSEVDKVLSGLEILSKVFDQQSSPMVTRLLQQQSLPQTGEQELESLVLKLSVLKDFLSGIQKKALKALQDMSSTAPPAPLQPSIRKAKTIPVQAFEVKLDVTLGDLTKIGKSQKFTLSVDVEGGRLVLLRRQRDSQEDWTTFTHDRIRQLIKSQRVQNKLGVVFEKEKDRTQRKDFIFVSARKREAFCQLLQLMKNRHSKQDEPDMISVFIGTWNMGSVPPPKNVTSWFTSKGLGKALDEVTVTIPHDIYVFGTQENSVGDREWLDLLRGGLKELTDLDYRPIAMQSLWNIKVAVLVKPEHENRISHVSTSSVKTGIANTLGNKGAVGVSFMFNGTSFGFVNCHLTSGNEKTTRRNQNYLDILRLLSLGDRQLSAFDISLRFTHLFWFGDLNYRLDMDIQEILNYISRREFEPLLRVDQLNLEREKHKVFLRFSEEEISFPPTYRYERGSRDTYAWHKQKPTGVRTNVPSWCDRILWKSYPETHIICNSYGCTDDIVTSDHSPVFGTFEVGVTSQFISKKGLSKTSDQAYIEFESIEAIVKTASRTKFFIEFYSTCLEEYKKSFENDAQSSDNINFLKVQWSSRQLPTLKPILADIEYLQDQHLLLTVKSMDGYESYGECVVALKSMIGSTAQQFLTFLSHRGEETGNIRGSMKVRVPTERLGTRERLYEWISIDKDDTGAKSKVPSVSRGSQEHRSGSRKPASTETSCPLSKLFEEPEKPPPTGRPPAPPRAVPREEPLNPRLKSEGTSEQEGVAAPPPKNSFNNPAYYVLEGVPHQLLPLEPPSLARAPLPPATKNKVAITVPAPQLGRHRTPRVGEGSSSDEDSGGTLPPPDFPPPPLPDSAIFLPPNLDPLSMPVVRGRSGGEARGPPPPKAHPRPPLPPGTSPASTFLGEVASGDDRSCSVLQMAKTLSEVDYAPGPGRSALLPNPLELQPPRGPSDYGRPLSFPPPRIRESIQEDLAEEAPCPQGGRASGLGEAGMGAWLRAIGLERYEEGLVHNGWDDLEFLSDITEEDLEEAGVQDPAHKRLLLDTLQLSK
As to B2, the binding result is recorded as “no binding”.
